Assay results taken from patent US20210087286A1 (Amgen, published 2021).

T1: human GIPR (human, UniProt P48546 22-466)
T1 sequence: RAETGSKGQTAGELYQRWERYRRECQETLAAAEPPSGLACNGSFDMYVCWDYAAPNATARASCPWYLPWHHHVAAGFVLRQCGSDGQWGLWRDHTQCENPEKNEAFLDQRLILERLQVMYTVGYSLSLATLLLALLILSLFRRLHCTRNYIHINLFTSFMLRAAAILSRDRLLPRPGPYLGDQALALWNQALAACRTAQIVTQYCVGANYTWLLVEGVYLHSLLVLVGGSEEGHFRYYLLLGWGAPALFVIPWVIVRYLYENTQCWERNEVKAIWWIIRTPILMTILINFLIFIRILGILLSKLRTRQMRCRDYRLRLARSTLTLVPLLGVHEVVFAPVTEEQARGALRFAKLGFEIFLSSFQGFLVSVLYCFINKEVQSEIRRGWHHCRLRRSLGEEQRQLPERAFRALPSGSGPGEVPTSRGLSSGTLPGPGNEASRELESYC

T2: huGIPR ECD (human, UniProt P48546 21-129, limits assumed)
T2 construct: Soluble analyte of the Biacore assay; also called human GIPR extracellular domain
T2 sequence: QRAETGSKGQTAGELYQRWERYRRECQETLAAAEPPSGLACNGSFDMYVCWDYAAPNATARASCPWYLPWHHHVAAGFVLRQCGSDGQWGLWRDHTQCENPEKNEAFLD

T3: murine GIPR (murine, UniProt Q0P543 19-460, limits assumed)
T3 sequence: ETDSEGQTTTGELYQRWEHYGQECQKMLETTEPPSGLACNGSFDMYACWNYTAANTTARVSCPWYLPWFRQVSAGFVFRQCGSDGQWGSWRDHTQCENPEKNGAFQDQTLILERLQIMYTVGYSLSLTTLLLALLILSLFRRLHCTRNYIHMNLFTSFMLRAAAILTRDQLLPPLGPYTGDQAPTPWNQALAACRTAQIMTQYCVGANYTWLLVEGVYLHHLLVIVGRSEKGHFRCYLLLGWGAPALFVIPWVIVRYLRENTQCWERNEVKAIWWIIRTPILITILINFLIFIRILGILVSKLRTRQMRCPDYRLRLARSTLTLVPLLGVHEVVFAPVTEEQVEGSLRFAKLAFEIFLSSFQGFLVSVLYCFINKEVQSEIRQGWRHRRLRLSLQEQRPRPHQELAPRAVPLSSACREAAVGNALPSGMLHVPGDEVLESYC


Legend:
[1] = molecular target: T1, human GIPR; assay: cell-based or functional assay
[2] = molecular target: T2, huGIPR ECD; assay: SPR (Biacore T200), mAb captured via goat anti-huFc, 200 nM huGIPR ECD analyte
Procedure: Immobilization of Goat-anti-huFc antibody to a S-CM5 sensor chip surface was performed according to manufacturer's instructions. The Biacore instrument running buffer is 0.005% P20/PBS 1×, pH7.4, no calcium chloride, no magnesium chloride. Briefly, carboxyl groups on the sensor chip surfaces were activated by injecting 60 μL of a mixture containing 0.2 M N-ethyl-N′-(dimethylaminopropyl) carbodiimide (EDC) and 0.05 M N-hydroxysuccinimide (NHS). Goat-anti-huFc antibody was diluted in 10 mM sodium acetate, pH 4.0 at 20 μg/ml and injected over the activated chip surface at 30 uL/min for 6 minutes. Excess reactive groups on the surfaces were deactivated by injecting 60 μL of 1 M ethanolamine. Final immobilized level was ˜8000 resonance units (RU).
Binding assays were carried out on the immobilized goat anti-huFc antibody surface by Biacore T200. The experiment was performed at 25° C. The instrument running buffer was 0.005% P20/PBS. The goat anti-huFc capture antibody was covalently attached to the sensor chip surface via standard amine coupling to flow cells channel 1-4. The anti-huGIPR antibodies were diluted in sample buffer (0.1 mg/ml BSA, 0.005% P20, PBS) to ˜10 nM then captured to flow cells channel 2, 3, 4. Flow cell channel 1 was as a blank reference surface without injection of anti-huGIPR antibody. The captured antibody response range was ˜250 RU. […]

[3] = molecular target: T3, murine GIPR; assay: cell-based or functional assay
[4] = molecular target: T1, human GIPR; assay: cell-based or functional assay; remark: listed apart in the source

Binder | cAMP IC50 [1] [nM] | koff [2] [s⁻¹] | murine cAMP [3] [nM] | human cAMP IC50 [4] [nM]
iPS:529382 (antibody, human IgG1, kappa, N297G) light: EIVMTQSPATLSVSPGERATLSCRASQSVSSNLAWYQQKPGQAPRLLIYGAATRATGIPARFSGSGSGTEFTLTISSLQSEDFAVYYCQQYNNWPLTFGGGTKVEIKRTVAAPSVFIFPPSDEQLKSGTASVVCLLNNFYPREAKVQWKVDNALQSGNSQESVTEQDSKDSTYSLSSTLTLSKADYEKHKVYACEVTHQGLSSPVTKSFNRGEC heavy: QVQLVESGGGVVQPGRSLRLSCAASGFTFSNYGMHWVRQAPGEGLEWVAAIWFDASDKYYAD[sequence of about 20 residues not given]MNSLRAEDTAVYYCARDIAIFGVVPDYWGQGTLVTVSSASTKGPSVFPLAPSSKSTSGGTAALGCLVKDYFPEPVTVSWNSGALTSGVHTFPAVLQSSGLYSLSSVVTVPSSSLGTQTYICNVNHKPSNTKVDKKVEPKSCDKTHTCPPCPAPELLGGPSVFLFPPKPKDTLYITREPEVTCVVVDVSHEDPEVKFNWYVDGVEVHNAKTKPCEEQYGSTYRCVSVLTVLHQDWLNGKEYKCKVSNKALPAPIEKTISKAKGQPREPQVYTLPPSREEMTKNQVSLTCLVKGFYPSDIAVEWESNGQPENNYKTTPPVLDSDGSFFLYSKLTVDKSRWQQGNVFSCSVMHEALHNHYTQKSLSLSPGK |  |  | 49.7 | 26.2
2G10.346 (antibody, human IgG1, kappa, N297G) light: EIVMTQSPATLSVSPGERATLSCRASQSVSSNLAWYQQKPGQAPRLLIYGAATRATGIPARFSGSGSGTEFTLTISSLQSEDFAVYYCQQYNNWPLTFGGGTKVEIKRTVAAPSVFIFPPSDEQLKSGTASVVCLLNNFYPREAKVQWKVDNALQSGNSQESVTEQDSKDSTYSLSSTLTLSKADYEKHKVYACEVTHQGLSSPVTKSFNRGEC heavy: QVQLVESGGGVVQPGRSLRLSCAASGFTFSNYGMHWVRQAPGEGLEWVAAIWFDASDKYYAD[sequence of about 20 residues not given]MNSLRAEDTAVYYCARDIAIFGVVPDYWGQGTLVTVSSASTKGPSVFPLAPSSKSTSGGTAALGCLVKDYFPEPVTVSWNSGALTSGVHTFPAVLQSSGLYSLSSVVTVPSSSLGTQTYICNVNHKPSNTKVDKKV[sequence of human IgG1 Fc with R292C N297G V302C (EU numbers) not given] | 22.2 | 0.0001 |  | 

Second part, the binder after the results:

cAMP IC50 [1] [nM] | koff [2] [s⁻¹] | murine cAMP [3] [nM] | human cAMP IC50 [4] [nM] | Binder
14 | < 5e-05 |  |  | 2G10.320 (antibody, human IgG1, kappa, N297G) light: EIVMTQSPATLSVSPGERATLSCRASQSVSEHLAWYQQKPGQAPRLLIYEAATRATGIPARFSGSGSGTEFTLTISSLQSEDFAVYYCQQYQNWPLTFGGGTKVEIKRTVAAPSVFIFPPSDEQLKSGTASVVCLLNNFYPREAKVQWKVDNALQSGNSQESVTEQDSKDSTYSLSSTLTLSKADYEKHKVYACEVTHQGLSSPVTKSFNRGEC heavy: QVQLVESGGGVVQPGRSLRLSCAASGFTFSNYGMHWVRQAPGEGLEWVAAIWFDASDKYYAD[sequence of about 20 residues not given]MNSLRAEDTAVYYCARDLAIFGVIPDYWGQGTLVTVSSASTKGPSVFPLAPSSKSTSGGTAALGCLVKDYFPEPVTVSWNSGALTSGVHTFPAVLQSSGLYSLSSVVTVPSSSLGTQTYICNVNHKPSNTKVDKKV[sequence of human IgG1 Fc with R292C N297G V302C (EU numbers) not given]
 |  | 9.3 | 33.2 | iPS:529381 (antibody, human IgG1, kappa, N297G) light: EIVMTQSPATLSVSPGERATLSCRASQSVSEHLAWYQQKPGQAPRLLIYEAATRATGIPARFSGSGSGTEFTLTISSLQSEDFAVYYCQQYQNWPLTFGGGTKVEIKRTVAAPSVFIFPPSDEQLKSGTASVVCLLNNFYPREAKVQWKVDNALQSGNSQESVTEQDSKDSTYSLSSTLTLSKADYEKHKVYACEVTHQGLSSPVTKSFNRGEC heavy: QVQLVESGGGVVQPGRSLRLSCAASGFTFSNYGMHWVRQAPGEGLEWVAAIWFDASDKYYAD[sequence of about 20 residues not given]MNSLRAEDTAVYYCARDLAIFGVIPDYWGQGTLVTVSSASTKGPSVFPLAPSSKSTSGGTAALGCLVKDYFPEPVTVSWNSGALTSGVHTFPAVLQSSGLYSLSSVVTVPSSSLGTQTYICNVNHKPSNTKVDKKVEPKSCDKTHTCPPCPAPELLGGPSVFLFPPKPKDTLYITREPEVTCVVVDVSHEDPEVKFNWYVDGVEVHNAKTKPCEEQYGSTYRCVSVLTVLHQDWLNGKEYKCKVSNKALPAPIEKTISKAKGQPREPQVYTLPPSREEMTKNQVSLTCLVKGFYPSDIAVEWESNGQPENNYKTTPPVLDSDGSFFLYSKLTVDKSRWQQGNVFSCSVMHEALHNHYTQKSLSLSPGK
